Results taken from the supplement of paper PMC3334620.
Over roughly 33,000 sequences, “E-score (-0.5 to 0.5)” has its median near -0.054; the highest 2% begin near 0.35. Some of the results follow.

These sequences were tested against T1, Stb5 (UniProt P38699) (assay: PBM E-score (8-mer binding enrichment) (E-score (-0.5 to 0.5)); higher = stronger / more preferred TF binding; most listed sequences are background and not binding sites). Settings: protein concentration: 200 nM; construct: GST-full length.
T1 sequence: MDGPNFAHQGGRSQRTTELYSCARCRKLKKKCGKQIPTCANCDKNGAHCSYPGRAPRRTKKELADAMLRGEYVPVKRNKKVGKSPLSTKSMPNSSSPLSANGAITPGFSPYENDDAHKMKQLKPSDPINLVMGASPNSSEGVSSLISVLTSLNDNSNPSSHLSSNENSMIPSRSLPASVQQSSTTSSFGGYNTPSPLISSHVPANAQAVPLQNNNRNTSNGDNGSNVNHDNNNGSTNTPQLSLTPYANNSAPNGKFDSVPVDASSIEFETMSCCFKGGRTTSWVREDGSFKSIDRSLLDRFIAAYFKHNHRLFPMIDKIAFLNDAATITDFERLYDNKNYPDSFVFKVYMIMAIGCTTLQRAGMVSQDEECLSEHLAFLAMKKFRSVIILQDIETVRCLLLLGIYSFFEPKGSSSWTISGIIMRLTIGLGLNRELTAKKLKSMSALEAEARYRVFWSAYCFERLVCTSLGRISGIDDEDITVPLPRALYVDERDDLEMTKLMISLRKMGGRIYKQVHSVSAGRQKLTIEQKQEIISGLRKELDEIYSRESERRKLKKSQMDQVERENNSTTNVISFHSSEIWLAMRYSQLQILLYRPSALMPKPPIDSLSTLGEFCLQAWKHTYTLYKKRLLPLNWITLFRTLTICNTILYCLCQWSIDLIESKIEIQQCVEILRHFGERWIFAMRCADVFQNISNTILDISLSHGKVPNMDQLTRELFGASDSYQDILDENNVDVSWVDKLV
In short: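 GST-tagged yeast TFs (full-length or DNA-binding domain) were made by PURExpress in vitro transcription/translation and applied at about 100-200 nM to universal all-10-mer Agilent arrays. The arrays were made double-stranded by primer extension, on fresh or once-stripped slides. Bound protein was detected with fluorescent anti-GST, and scans were normalised with masliner. Each ungapped eight-base word, pooled with its reverse complement, received an E-score (modified Wilcoxon-Mann-Whitney statistic) from the Universal PBM Analysis Suite.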

Sequence | PBM E-score
AGGATCGC | -0.0683
GCAGGCAC | -0.114
ACGACCGT | 0.143
CCGTCCAA | 0.269
ACCAACAC | -0.188
GAGTTCCA | -0.0932
AGCGTGCC | -0.0922
CTCAGTAC | -0.213
ACTGGCTA | -0.141
CGTTTCTC | 0.0293
GCTGTCCC | -0.0545
CGCCCCAA | 0.134
AGGAGTAG | -0.135
ACATCGAA | -0.0128
AGATAGGA | 0.00142
AGGACCAA | -0.115
CATAAAAG | -0.00979
CCACCTAC | -0.0935
AACTCCAA | -0.174
CAACAAGA | -0.117
AGAAACAC | -0.0091
CCCGCTAC | 0.216
ACTTACAT | -0.234
GACGTCAC | 0.0593
AAAAGGAT | -0.147

Sequence | PBM E-score
ACCATAAC | -0.0145
CCTCTGTC | -0.0874
CACGTAAA | -0.152
CTGGTTAC | -0.167
ATCTTAAT | -0.135
GGCTCGGA | 0.0311
TCGGCCCA | 0.105
ATTTGGGG | -0.159
CAAGCGAA | -0.355
CAAAGTTA | -0.0549
CCTTAGTC | 0.0459
AGCAACTA | 0.0984
GAGGCGAC | -0.252
GGTAGGGA | -0.00935
AAGGCCGG | 0.407
TCGTTACA | -0.114
GCTTAGAA | -0.107
AATCCATC | -0.179
CTGTAGCA | -0.128
AAAACAAC | -0.173
ATTGCTTC | -0.0848
AAAATAAG | 0.0161
CCTCCATC | -0.18
CAGGTTGA | -0.147
CACATAGG | -0.126

Sequence | PBM E-score
GCGCCTCA | -0.0151
CGAACGCA | 0.0645
AACCGGCA | 0.106
CCATGCAG | -0.247
ATCGCGGC | 0.32
CACTCAAG | -0.364
AGGGCAAC | -0.225
ACATTTCT | 0.00908
CCCTTAAA | -0.237
CCCATATC | 0.0514
ATTTCCAG | -0.0648
GCTTCTAA | -0.191
CGCAACAA | -0.0248
ATCGAAGA | 0.0496
CTCCTCTC | -0.308
GCCCCCAC | 0.0261
CGTAATAA | -0.0188
TACAGCCA | -0.151
TTCCACAA | -0.131
CGTATCGC | 0.205
CGCACTAA | 0.114
ACGAGGAC | 0.0813
CAAGGCAG | -0.201
AGGCGTGA | -0.213
TGGCGTAA | -0.159

Sequence | PBM E-score
CCTCAAGG | -0.277
CGATCCAC | -0.0554
ATGCAGGC | -0.101
AAAGAGGC | -0.0782
AAGGGAAT | -0.00041
ACTGACAC | 0.0105
ATTCCACC | 0.135
GAGCCGAA | 0.0621
CTCTCTCA | -0.0636
CATCTCAC | -0.0371
CACACACC | 0.105
CTCCGGCC | 0.245
AACCGATC | 0.106
GTCACATA | 0.0765
AGCACCAA | -0.159
AAGGATTG | -0.188
ACATCGTG | -0.106
CCATCCGC | 0.136
AAGTTTGT | 0.0493
GCCTTACA | 0.0192
CGGATCAC | 0.0285
AGTAAGCG | 0.0373
AAGTTCTC | -0.0356
TATGCTAA | -0.119
CCACCGTC | 0.246

Sequence | PBM E-score
AGACAGCC | -0.0587
CCCTTTAA | 0.0465
TATACGGA | 0.134
CTGAACGA | -0.151
CACGCCTG | -0.158
AAGTACCG | 0.441
CGCATTGC | -0.0359
ATGCCGTA | 0.162
GCGGCCAA | 0.0811
ATTCCTGG | -0.183
ATTACTAG | 0.165
GAAGGGGA | -0.287
ACATGGGA | 0.0704
GGCTTGTA | -0.0193
CCCGTAAA | 0.142
AGGCTCCA | -0.215
CATATTAG | 0.0822
GACCTTCC | -0.0223
GACCGGTC | 0.316
GTATGTAA | -0.0466
CACAATTA | -0.173
ACACGGAC | 0.286
GATAAGCC | 0.0935
ACCCACCG | 0.177
CCGCTCCA | 0.29

Sequence | PBM E-score
GTAATCAC | 0.128
AGCGCACA | -0.0927
CGTAGTTA | 0.178
ATCGGGAA | 0.306
CACGCGTG | -0.116
TACCCAGA | -0.292
CCGATCAG | 0.277
CACCGAAC | 0.366
ACGTTAAT | 0.00158
CCCCGTTC | 0.313
AACCGTAC | -0.09
GGCGCGAA | 0.134
ATATATTA | 0.208
GTGAACAC | 0.0268
AGTGACCA | -0.195
TCTTAGCA | -0.134
AGTAAGTG | -0.0494
ACACTGTG | -0.233
AAAGGGGA | -0.128
TCCGAACA | 0.239
ACACGCAC | -0.168
CGCGCGAC | -0.00587
CAGAAGGG | -0.202
ACGCCACG | -0.0375
ATCCGCCC | 0.218

Sequence | PBM E-score
GACACACA | -0.0713
CCGCCAGA | 0.266
CAGCAGCC | -0.193
ACGGTCAC | 0.0418
AACACCTA | 0.211
CACGCAAC | -0.0613
CCCATGCC | 0.0152
GCTACCCC | 0.0894
CGTACCAC | -0.0428
CCGTGAGG | 0.142
CGATACTC | 0.218
CCCAGGCA | -0.24
AACGGCCG | 0.264
AACCTCTC | -0.196
AGACGTAC | -0.201
TGTTAGAA | -0.13
ACACCTAT | -0.00164
GGCTGGGA | -0.162
GTATAAAA | 0.21
CATCCCGA | 0.1
GCCTCTCA | -0.162
GGTTTCAC | 0.0622
